Measurements: paper PMC4336329 (PLoS ONE, 2015)
Among all 310,000 compounds or so, about 2,200 (0.71%) showed an effect of 50% or more. Effects have a minus sign here. This is one part of the list.

molecular target: human ether-à-go-go-related gene (hERG) potassium channel (human, UniProt Q12809); experiment: primary screen, population patch clamp on CHO cells stably expressing hERG
Sequence (Q12809 whole entry, looked up): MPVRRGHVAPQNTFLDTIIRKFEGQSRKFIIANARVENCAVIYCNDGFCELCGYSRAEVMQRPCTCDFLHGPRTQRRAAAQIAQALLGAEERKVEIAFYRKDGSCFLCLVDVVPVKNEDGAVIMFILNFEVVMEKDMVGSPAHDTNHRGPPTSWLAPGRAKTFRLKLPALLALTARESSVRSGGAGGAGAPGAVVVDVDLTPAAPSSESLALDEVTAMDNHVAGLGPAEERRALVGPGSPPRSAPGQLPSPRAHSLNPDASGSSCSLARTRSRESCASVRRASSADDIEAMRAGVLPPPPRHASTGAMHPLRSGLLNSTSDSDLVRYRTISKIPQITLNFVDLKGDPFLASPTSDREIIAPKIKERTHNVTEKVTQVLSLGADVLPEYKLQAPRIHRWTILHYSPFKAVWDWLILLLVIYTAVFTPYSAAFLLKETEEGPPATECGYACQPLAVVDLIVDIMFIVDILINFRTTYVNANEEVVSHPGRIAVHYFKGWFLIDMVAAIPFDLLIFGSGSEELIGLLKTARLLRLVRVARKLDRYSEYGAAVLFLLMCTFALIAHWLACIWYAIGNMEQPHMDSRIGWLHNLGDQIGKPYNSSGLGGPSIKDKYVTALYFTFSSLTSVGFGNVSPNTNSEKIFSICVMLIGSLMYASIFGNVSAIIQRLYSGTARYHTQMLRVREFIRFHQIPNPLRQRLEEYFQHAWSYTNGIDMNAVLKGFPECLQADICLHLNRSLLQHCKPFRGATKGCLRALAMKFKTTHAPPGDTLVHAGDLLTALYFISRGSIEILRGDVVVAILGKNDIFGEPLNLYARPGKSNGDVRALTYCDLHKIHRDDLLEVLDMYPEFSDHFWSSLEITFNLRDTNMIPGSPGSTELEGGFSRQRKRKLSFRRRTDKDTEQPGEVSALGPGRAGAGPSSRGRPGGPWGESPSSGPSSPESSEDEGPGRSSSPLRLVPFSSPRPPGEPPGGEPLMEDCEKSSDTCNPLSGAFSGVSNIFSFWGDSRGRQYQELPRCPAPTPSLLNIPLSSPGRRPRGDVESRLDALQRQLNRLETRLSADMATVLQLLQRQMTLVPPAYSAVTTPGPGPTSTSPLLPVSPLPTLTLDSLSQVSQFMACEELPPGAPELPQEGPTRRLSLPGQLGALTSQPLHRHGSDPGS

Row | Compound | hERG current change (%, negative = inhibition) at 1uM [%]
1 | Cc1ccc(NC(=S)/N=C(\N)Nc2nc(C)c3ccccc3n2)cc1C | -2.58
2 | CCOC(=O)C1=C(c2ccccc2)NC(SCC(=O)NC2CCCCC2)=C(C#N)C1c1ccco1 (centres unmarked) | 10.2
3 | CCC(=O)NC(=S)N1CCN(c2ccc([N+](=O)[O-])cc2Cl)CC1 | -11.8
4 | Cc1ccc(N(C)C(=O)N2CCN(S(=O)(=O)c3c(C)cc(C)cc3C)CC2)cc1 | 1.4
5 | CN(C)C(=O)Oc1ccc(OC(=O)N(C)C)cc1 | 6.24
6 | CCC1CCCCN1C(=O)c1cc2cc(Br)ccc2oc1=O (centres unmarked) | -3.33
7 | COC(=O)c1ccc(CSc2nnnn2-c2ccccc2)o1 | 14.6
8 | CC(=O)c1cccc(NC(=S)N2CCCC2)c1 | 9.48
9 | COc1cccc2cc(C(=O)CC3(O)C(=O)N(Cc4ccccc4)c4ccccc43)c(=O)oc12 (centres unmarked) | 9.51
10 | COc1cc(N2C(=O)NC3CC2(C)Oc2ccccc23)cc(OC)c1OC (centres unmarked) | 16.8
11 | CCN(Cc1ccccc1)S(=O)(=O)c1nc2nc(C)c(C)c(C)n2n1 | 6.07
12 | O=C(CSc1nnc(COc2ccc(Cl)cc2)o1)N1CCN(c2ccccc2)CC1 | 3.48
13 | CC(C)(C)CC(=O)Nc1nnc(SCC(=O)NC2CCCC2)s1 | 2.17
14 | CC(=O)Nc1nc(COc2ccc3ccccc3c2)cs1 | 19.3
15 | Cc1nc(SCC(=O)Nc2cc(C(N)=O)cc(C(N)=O)c2)c2c(C)c(C)sc2n1 | 12
16 | C/C(CCc1ccccc1)=N\NC(=O)C1C2CCCCC21 (centres unmarked) | 12.9
17 | C/C(N)=C(/C#N)C(=O)COC(=O)C1=NN(c2ccccc2)C(=O)CC1 | 18.3
18 | COc1cc(NS(=O)(=O)c2ccc(NC(=S)NC(=O)c3ccco3)cc2)ncn1 | 18.5
19 | O=C(CCC(=O)Nc1ccc(F)cc1)N/N=C/c1cccs1 | 7.12
20 | O=C/C(=C\Nc1ccccn1)c1nc2ccccc2o1 | -7.25
21 | CN(Cc1ccc2ccccc2c1)C(=O)c1ccc(C(F)(F)F)cc1 | 17.9
22 | COC(=O)CON1C(=O)c2ccccc2C1=O | 4.67

Row | Compound | hERG current change (%, negative = inhibition) at 1uM [%]
23 | CCn1c(C)cc2c(c1=O)C(c1ccc3c(c1)OCO3)C(C#N)=C(N)O2 (centres unmarked) | -2.94
24 | Clc1ccc2nc(-c3cccc(SC4CCCCC4)c3)c(NCc3ccccc3)n2c1.O=C(O)C(F)(F)F | 5.58
25 | O=C(NCCc1nc2ccccc2[nH]1)c1ccc(F)cc1 | -14.9
26 | O=C(Nc1ccc(-n2nncc2-c2ccco2)cc1)c1ccc(F)cc1 | -1.99
27 | CCOC(=O)[C@H](CCc1ccccc1)N[C@H]1CCc2ccccc2N(CC(=O)O)C1=O.Cl | 16.1
28 | Cc1[nH]c(C)c(S(=O)(=O)NCc2ccccc2Cl)c1C(=O)N1CCCC1 | 9.42
29 | Cc1cc(NC(=O)c2ccc(C#N)cc2)n(-c2ccccc2)n1 | 8.2
30 | CC(C)C(=O)NNC(=O)c1csc(CS(=O)(=O)c2ccc(Cl)cc2)n1 | 4.21
31 | CCCCn1c(=O)[nH]c2nc3cc(NC(C)=O)ccc3nc2c1=O | 18.1
32 | COc1cccc(C(=S)N2CCOCC2)c1OS(=O)(=O)c1ccc(Cl)cc1 | 8.5
33 | O=C(Nc1ccc(Cl)cc1)C1=Cc2cc(Cl)ccc2OC1 | 3.76
34 | CCOC(=O)C1=NN(C(=O)Nc2ccc(OC)cc2)C2C(=O)N(c3cccc(C(F)(F)F)c3)C(=O)C12 (centres unmarked) | 0.488
35 | Cc1ccc(S(=O)(=O)N2CCC(C(=O)NCCCN3CCCCCC3)CC2)cc1 | -0.0269
36 | CCC(C(=O)c1ccc(O)cc1)c1ccccc1 (centres unmarked) | 7.46
37 | [Br-].c1ccc(Nc2scc(-c3ccccc3)[n+]2Cc2ccco2)cc1 | 8.15
38 | COC(=O)CSc1ncc(OC)c(OC)n1 | 4.54
39 | COc1ccc(C2=NN(C(=O)CCCC(=O)O)C(c3cn(-c4ccccc4)nc3-c3ccccc3)C2)cc1 (centres unmarked) | -3.5
40 | Nc1ccc(Br)cc1Br | 12.3
41 | Fc1cnc(N2CCOCC2)nc1NCc1ccccc1 | 16.1
42 | CCCCCCCn1c(=O)c(C(=O)Nc2cnccn2)c(O)c2ccccc21 | 12.5
43 | CCn1c(CSCc2c(Cl)cccc2Cl)n[nH]c1=S | 20.4
44 | C[n+]1ccc(C(=O)Nc2ccccc2Cl)cc1.[I-] | 22.5
